Assay results from PubChem BioAssay AID2675 (National Center for Advancing Translational Sciences (NCATS), 2010).
The whole screen tested about 280,000 compounds, of which about 100 (0.036%) were called active. Inconclusive means that the source gave no clear call. Such entries were picked first, then a sample of the others. Calls follow the shape of the dose curve; as a rule, active = well fitted inhibition curve with a large enough effect in the signal ratio, with a control signal flat (not every such curve was filed as active); inconclusive = small, poorly fitted or top-dose-only effect, or effect the other way, or a change in a side signal; inactive = no such curve, though single readings can be large or run the other way; the % refers to the signal ratio. A potency beside an inconclusive call is a rough fit, not a confirmed value. “Side channel” marks fits to a control or component signal instead of the main read-out.

These compounds were tested against Muscleblind-like protein 1 (Homo sapiens) (UniProt Q9NR56) (assay: qHTS Assay for Inhibitors of MBNL1-poly(CUG) RNA binding). Details: TR-FRET MBNL1-His/biotin-(CUG)12 binding, 665/545 ratio; activity change, negative = inhibition: at 57.5 µM (top of the series).
UniProt Q9NR56, sequence (Q9NR56 whole entry, looked up): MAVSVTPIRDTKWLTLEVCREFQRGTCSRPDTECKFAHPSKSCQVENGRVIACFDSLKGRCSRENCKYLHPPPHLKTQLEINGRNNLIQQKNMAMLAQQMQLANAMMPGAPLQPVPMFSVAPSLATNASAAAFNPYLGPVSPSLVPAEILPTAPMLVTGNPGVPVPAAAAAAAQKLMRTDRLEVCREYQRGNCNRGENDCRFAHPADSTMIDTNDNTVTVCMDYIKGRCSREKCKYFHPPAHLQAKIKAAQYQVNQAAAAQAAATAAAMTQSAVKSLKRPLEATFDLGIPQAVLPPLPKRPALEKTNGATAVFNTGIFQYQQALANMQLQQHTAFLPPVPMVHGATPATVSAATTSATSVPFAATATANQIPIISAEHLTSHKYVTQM
Outline: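 Ratiometric TR-FRET (665 over 545 nm, excitation 340 nm) tracks disruption of MBNL1-His/biotin-(CUG)12 complex after 60 min at room temperature, with compounds at 92 nM to 58 uM final.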
% is scaled to controls: 0 for no effect and ±100 for the full control effect; potency is read from the fitted curve at half-maximal effect; tags tell the direction and shape of the fitted curve or compound fluorescence and quenching.

Compound	Potency	activity change, negative = inhibition
Cc1ccc(C(=O)Nc2nnc(SCC(=O)N3CCCc4ccccc43)s2)cc1	inconclusive: 0.0891 µM [fluorescent, side channel, full curve]	
CC1CCN(C(=O)CSc2nc3ccccc3c(=O)[nH]2)CC1	inconclusive: 100 µM [inhibitor, partial curve, poor fit]	
O=C(Cc1ccc(F)cc1)Nc1nc(-c2ccc(F)cc2)cs1		inactive: -1.87%
O=C(O)c1cc(Cl)ccc1-c1ccc(/C=C/c2cc(C(F)(F)F)[nH]c(=O)n2)o1	inconclusive: 39.8 µM [quencher, side channel, single point]	
Cc1cccc2c1-c1sc(C(=O)NCCCN3CCC(C)CC3)cc1CO2	inconclusive: 20 µM [quencher, side channel, partial curve]	
COc1ccccc1NC(=O)CSc1ncc(CO)n1Cc1ccc(F)cc1		inactive: 2.61%
Cc1cccc(NC(=O)C2(c3ccc([N+](=O)[O-])cc3)CCCC2)c1	inconclusive: 44.7 µM [quencher, single point]	
CN(Cc1ccccc1)c1ncc(C=O)s1	inconclusive: 20 µM [quencher, side channel, partial curve]	
CC(=O)C1=C(c2cccc([N+](=O)[O-])c2)N(C(C)=O)n2c(C)nnc2S1	inconclusive: 2.51 µM [quencher, side channel, full curve, poor fit]	
O=C(Cc1ccccc1)NN1C(=O)/C(=C/c2ccc(C(=O)O)cc2)SC1=S	inconclusive: 14.1 µM [quencher, partial curve]	
COc1ccc(C(=O)CNc2ccccc2Br)cc1		inactive: 3.9%
O=C(CCc1ccc(S(=O)(=O)NCCc2ccccc2)cc1)NCc1ccco1	inconclusive: 1.26 µM [fluorescent, side channel, partial curve]	
CCOC(=O)CSC1=C(C#N)C(c2ccc(OC)cc2)C2=C(CC(C)(C)CC2=O)N1 (stereo unspecified)	inconclusive: 14.1 µM [quencher, side channel, partial curve]	
CCN(C(=O)CN1C(=O)/C(=C/c2ccccc2)SC1=S)C1CCS(=O)(=O)C1 (stereo unspecified)	inconclusive: 1 µM [quencher, side channel, full curve, poor fit]	
COc1ccc2c(c1O)Cc1ccccc1C2=O	inconclusive: 0.891 µM [quencher, side channel, full curve]	
O=C(CN1CCN(Cc2ccccc2Cl)CC1)N=Nc1c(O)[nH]c2ccccc12	inconclusive: 3.16 µM [quencher, side channel, single point]	
O=S(=O)(c1ccccc1Cl)N1CCCC1c1nc(-c2ccccc2Cl)no1 (stereo unspecified)		inactive: -6.94%
CC(=O)Oc1cccc2c1C(=O)c1c(OC(C)=O)cc(C(=O)O)cc1C2=O	inconclusive: 28.2 µM [quencher, side channel, partial curve]	
CCOC(=O)C1(CC2CCCCO2)CCN(Cc2ccc(OC)cc2F)CC1 (stereo unspecified)	inconclusive: 251 µM [inhibitor, partial curve]	
CCCN1C(=O)c2ccc(C(=O)NCc3ccco3)cc2C1=O	inconclusive: 17.8 µM [quencher, side channel, partial curve]	
C/C(=C\C(=S)Nc1ccccc1)Nc1cccc2ccccc12	inconclusive: 0.501 µM [quencher, side channel, full curve, poor fit]	

Compound	Potency	activity change, negative = inhibition
COc1ccc(CC(=O)N/N=C/c2ccc(-c3ccc(F)cc3)o2)cc1OC	inconclusive: 25.1 µM [quencher, side channel, partial curve]	
COc1ccc(-c2csc(C3=C(O)CN(C(C)C)C3=N)n2)cc1OC		inactive: 9.95%
CC(=O)OCCCCON1C(=O)c2ccccc2C1=O	inconclusive: 39.8 µM [quencher, side channel, single point]	
CN(C1CCCCC1)S(=O)(=O)c1ccc(NC(=S)NC(=O)c2cccs2)cc1		inactive: -5.66%
O=C(CCNc1ccccc1)c1cccc([N+](=O)[O-])c1	inconclusive: 15.8 µM [quencher, side channel, partial curve]	
CCN(CC)c1ccc2c(c1)OC(N)=C(C#N)C2c1cccnc1 (stereo unspecified)	inconclusive: 15.8 µM [quencher, side channel, partial curve]	
O=[N+]([O-])c1ccc(CS(=O)(=O)c2ccc(Cl)cc2)cc1	inconclusive: 11.2 µM [quencher, side channel, partial curve]	
COc1ccc(Nc2ccc(N3C(=O)CCCC3=O)cc2[N+](=O)[O-])c(OC)c1	inconclusive: 12.6 µM [quencher, side channel, partial curve]	
COCCCNC(=O)Cn1cc(C(=O)c2cccs2)c2ccccc21	inconclusive: 2 µM [quencher, side channel, partial curve]	
Cc1cc(C)cc(NC(=S)NCCCN2CCOCC2)c1	inconclusive: 1 µM [quencher, side channel, partial curve]	
COc1cccc(NC(=O)CSc2nnc(Cn3cnc([N+](=O)[O-])n3)n2C)c1	inconclusive: 35.5 µM [quencher, side channel, partial curve, poor fit]	
CCN1C(=O)c2cccc3c(NS(=O)(=O)c4ccc(NC(C)=O)cc4)ccc1c23	inconclusive: 22.4 µM [quencher, side channel, partial curve]	
COc1ccc2oc(=O)c(C(=O)Nc3cccc(C)c3)cc2c1		inactive: 21.1%
Cc1csc(NC(=O)/C=C/c2ccco2)n1	inconclusive: 14.1 µM [quencher, side channel, partial curve]	
CC(=O)c1cccc(OCC(O)CNCC2COc3ccccc3O2)c1 (stereo unspecified)		inactive: -24%
CC(=O)Nc1ccc(S(=O)(=O)c2ccc([N+](=O)[O-])cc2)cc1	inconclusive: 7.94 µM [quencher, side channel, partial curve]	
O=C(Nc1ncccc1O)c1ccc(OCC2CCCO2)cc1 (stereo unspecified)	inconclusive: 22.4 µM [quencher, side channel, single point]	
C/C(CC(=O)NC1CCCCC1)=N\NC(=O)c1ccc(Br)cc1	inconclusive: 3.98 µM [fluorescent, side channel, single point]	
O=C(CN1C(=O)C2C3CCC(C3)C2C1=O)Oc1ccc2ccccc2c1 (stereo unspecified)	inconclusive: 0.398 µM [fluorescent, side channel, partial curve]	
CN1CCS/C1=C\C=C1/SC(=S)N(CC(=O)O)C1=O	inconclusive: 39.8 µM [quencher, single point]	
CC1CN(c2ccc([N+](=O)[O-])cc2C#N)CC(C)O1 (stereo unspecified)	inconclusive: 12.6 µM [quencher, side channel, partial curve]	

Compound	Potency	activity change, negative = inhibition
O=C(c1cccc([N+](=O)[O-])c1)N1CCN(S(=O)(=O)N2CCCCC2)CC1	inconclusive: 14.1 µM [quencher, side channel, partial curve]	
Cc1ccc(CN2CCN(/N=C/C=C/c3ccccc3[N+](=O)[O-])CC2)cc1	inconclusive: 31.6 µM [quencher, side channel, partial curve]	
CC(NC(=O)Cc1ccc([N+](=O)[O-])cc1)c1ccc2c(c1)OCO2 (stereo unspecified)	inconclusive: 22.4 µM [quencher, side channel, single point]	
O=C1c2ccccc2C(=O)c2c(NCCCN(CCO)CCO)cccc21	inconclusive: 2.24 µM [quencher, side channel, full curve]	
CC(=O)/C(C#N)=C1\NC(=O)C(Cc2ccc(C)c(C)c2)S1 (stereo unspecified)		inactive: -1.33%
COc1ccc(N(C)S(=O)(=O)c2cccc(C(=O)NC3=NCCS3)c2)cc1		inactive: -13%
Cn1c(-c2ccc(Br)o2)nc2ccccc21		inactive: 7.47%
O=C(NNc1ccc([N+](=O)[O-])cc1)C1CC1c1ccccc1 (stereo unspecified)	inconclusive: 31.6 µM [quencher, side channel, partial curve]	
CCCCN(Cc1ccccc1)C1CCN(Cc2ccccc2)CC1		inactive: -0.391%
Cc1cc(C)c2c(N)c(C(=O)Nc3c(C)n(C)n(-c4ccccc4)c3=O)sc2n1	inconclusive: 25.1 µM [quencher, side channel, single point]	
Cc1ccc2[nH]c3nc(NN)nnc3c2c1	inconclusive: 11.2 µM [quencher, side channel, partial curve]	
N#C/C(=C(\O)c1ccco1)c1ccccn1	inconclusive: 17.8 µM [quencher, side channel, single point]	
c1cnc2nc(-c3ccc4c(c3)OCO4)cn2c1	inconclusive: 28.2 µM [quencher, side channel, partial curve]	
CCCCCCC(=O)Nc1nnc(CC)s1	inconclusive: 39.8 µM [quencher, side channel, single point]	
CCOC(=O)c1cnc2c(C)c(Cl)ccc2c1N1CCN(CC)CC1	inconclusive: 35.5 µM [quencher, side channel, single point]	
CCN(CCNC(=O)c1cc(C)nn1-c1ccccc1)c1ccccc1	inconclusive: 8.91 µM [quencher, side channel, single point]	
CCOC(=O)COc1ccc2cc(C(=O)OCC)c(=O)oc2c1	inconclusive: 12.6 µM [quencher, side channel, partial curve]	
NC(=O)c1cc(S(=O)(=O)Nc2cccc(Cl)c2)cs1		inactive: -2.93%
O=C(CSc1ccc([N+](=O)[O-])cn1)Nc1ccc2[nH]c(=O)[nH]c2c1	inconclusive: 3.16 µM [quencher, side channel, full curve]	
